# Reference: patent US20090099029
# T1: Bovine, dephosphorylated, Myelin Basic Protein (MBP), P02687
# T1 chain: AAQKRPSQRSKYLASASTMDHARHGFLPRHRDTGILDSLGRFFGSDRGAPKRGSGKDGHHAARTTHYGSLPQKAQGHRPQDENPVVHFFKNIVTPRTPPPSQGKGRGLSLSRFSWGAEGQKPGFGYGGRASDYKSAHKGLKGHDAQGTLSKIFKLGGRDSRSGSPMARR
# Biological target: T1, Bovine, dephosphorylated, Myelin Basic …
protein,measurement,value
ABL1 (protein) MLEICLKLVGCKSKKGLSSSSSCYLEEALQRPVASDFEPQGLSEAARWNSKENLLAGPSE[about 60 residues not given here]LEKHSWYHGPVSRNAAEYLLSSGINGSFLVRESESSPGQRSISLRYEGRVYHYRINTASDGKLYVSSESRFNTLAELVHHHSTVADGLITTLHYPAPKRNKPTVYGVSPNYDKWEMERTDITMKHKLGGGQYGEVYEGVWKKYSLTVAVKTLKEDTMEVEEFLKEAAVMKEIKHPNLVQLLGVCTREPPFYIITEFMTYGNLLDYLRECNRQEVNAVVLLYMATQISSAMEYLEKKNFIHRDLAARNCLVGENHLVKVADFGLSRLMTGDTYTAHAGAKFPIKWTAPESLAYNKFSIKSDVWAFGVLLWEIATYGMSPYPGIDLSQVYELLEKDYRMERPEGCPEKVYELMRACWQWNPSDRPSFAEIHQAFETMFQESSISDEVEKELGKQGVRGAVSTLLQAPELPTKTRTSRRAAEHRDTTDVPEMPHSKGQGESDPLDHEPAVSPLLPRKERGPPEGGLNEDERLLPKDKKTNLFSALIKKKKKTAPTPPKRSSSFREMDGQPERRGAGEEEGRDISNGALAFTPLDTADPAKSPKPSNGAGVPNGALRESGGSGFRSPHLWKKSSTLTSSRLATGEEEGGGSSSKRFLRSCSASCVPHGAKDTEWRSVTLPRDLQSTGRQFDSSTFGGHKSEKPALPRKRAGENRSDQVTRGTVTPPPRLVKKNEEAADEVFKDIMESSPGSSPPNLTPKPLRRQVTVAPASGLPHKEEAGKGSALGTPAAAEPVTPTSKAGSGAPGGTSKGPAEESRVRRHKHSSESPGRDKGKLSRLKPAPPPPPAASAGKAGGKPSQSPSQEAAGEAVLGAKTKATSLVDAVNSDAAKPSQPGEGLKKPVLPATPKPQSAKPSGTPISPAPVPSTLPSASSALAGDQPSSTAFIPLISTRVSLRKTRQPPERIASGAITKGVVLDSTEALCLAISRNSEQMASHSAVLEAGKNLYTFCVSYVDSIQQMRNKFAFREAINKLENNLRELQICPATAGSGPAATQDFSKLLSSVKEISDIVQR,MBP Kinase Activity,Weak
